# According to PubChem BioAssay AID485294 (National Center for Advancing Translational Sciences (NCATS), 2010):
# Among all 370,000 compounds or so, about 150 (0.041%) were called active. This list was built around the results that the source calls inconclusive (neither active nor inactive); the mix of calls is not that of the screen. Calls follow the shape of the dose curve; as a rule, active = well fitted inhibition curve with a large enough effect; inconclusive = small, poorly fitted or top-dose-only effect; inactive = flat fitted curve, though single readings scatter. No potency is given beside an inconclusive call; the fits are too rough.
# Molecular target: Beta-lactamase (Escherichia coli (strain K12)) (UniProt P00811)
# UniProt P00811, sequence (P00811 whole entry, looked up): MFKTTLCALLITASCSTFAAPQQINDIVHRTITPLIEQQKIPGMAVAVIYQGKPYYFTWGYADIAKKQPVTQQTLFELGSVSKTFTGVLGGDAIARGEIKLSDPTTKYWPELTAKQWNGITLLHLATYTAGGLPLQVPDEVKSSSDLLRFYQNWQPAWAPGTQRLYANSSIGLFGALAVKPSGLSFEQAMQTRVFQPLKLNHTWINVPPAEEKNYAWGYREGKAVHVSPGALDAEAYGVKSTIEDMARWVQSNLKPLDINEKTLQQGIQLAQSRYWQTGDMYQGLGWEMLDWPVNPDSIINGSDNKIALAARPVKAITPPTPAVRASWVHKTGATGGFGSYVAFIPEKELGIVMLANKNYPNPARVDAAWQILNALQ
# Assay: qHTS Inhibitors of AmpC Beta-Lactamase (assay with detergent); also: nearly all actives have a fitted effect of over 25% in size;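 as to activity change, negative = inhibition: 0% = no-compound wells and -100% = no-enzyme wells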
# Conditions: AmpC hydrolysis of nitrocefin, absorbance 480 nm, 0.01% Triton; activity change, negative = inhibition: at 114 µM (top of the series)
# Method in brief: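 AmpC (5.3 nM in the dispensed reagent) in 20 mM phosphate pH 7.0 with 0.01% (detergent screen) or 0.0001% Triton X-100 was preincubated with compounds for 15 min at room temperature. Nitrocefin was then added from an 800 uM solution, and hydrolysis was followed at 480 nm.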
# Potency is read from the fitted curve at half-maximal effect; tags tell the direction and shape of the fitted curve.
Compound,"activity change, negative = inhibition",Potency
CC(C)c1ccc(C2Sc3ccccc3NC3=C2C(=O)c2ccccc23)cc1 (configuration not stated),inactive: 7.11%,
O=C(NCc1cccnc1)Nc1cccc(Cl)c1Cl,,"inconclusive [inhibitor, full curve]"
Cc1ccc2nc(C)cc(Nc3ccc4c(c3)OCCO4)c2c1,inactive: -3.78%,
S=C(NC1CCCCC1)N1CCc2[nH]c3ccccc3c2C1,inactive: 2.83%,
Cn1c(SCC(=O)N2c3ccccc3Sc3ccccc32)nc2ccccc21,,"inconclusive [inhibitor, full curve, poor fit]"
CC1(C)CC(CC(=O)O)(c2ccccc2)CCO1 (configuration not stated),,"inconclusive [inhibitor, full curve, poor fit]"
Cc1cccc(C)c1NC(=O)C(=O)NCC1CCCN1S(=O)(=O)c1cccs1 (configuration not stated),,"inconclusive [inhibitor, partial curve, poor fit]"
Cc1ccc(NC(=O)CSCC(=O)NNC(=O)c2ccoc2C)cc1,,"inconclusive [inhibitor, full curve, poor fit]"
OC12CCCCC1C(c1ccc3c(c1)OCO3)N(Cc1cccc(F)c1)CC2 (configuration not stated),,"inconclusive [inhibitor, partial curve]"
Cc1ccc(NC(=S)N=Nc2c(O)n(C)c3ccc(S(=O)(=O)N4CCOCC4)cc23)cc1C,,"inconclusive [inhibitor, partial curve]"
O=C1c2ccccc2C(Nc2cccnc2)N1Cc1ccc2c(c1)OCO2 (configuration not stated),,"inconclusive [inhibitor, full curve, poor fit]"
COc1cc2cc(C(=O)NCCc3ccccc3)[nH]c2cc1OC,,"inconclusive [inhibitor, full curve, poor fit]"
COc1ccc2c(ccn2S(=O)(=O)c2ccccc2)c1,,"inconclusive [inhibitor, full curve]"
Cc1ccc(NC(=O)CSc2ccccc2)cc1S(=O)(=O)N1CCOCC1,,"inconclusive [inhibitor, full curve, poor fit]"
O=C1c2ccccc2C(=O)N1CCCCN(C(=O)c1cc([N+](=O)[O-])cc([N+](=O)[O-])c1)c1ccc(Cl)cc1,,"inconclusive [inhibitor, partial curve, poor fit]"
COc1ccc(S(=O)(=O)Nc2ccc(S(=O)(=O)N3CCCCC3)cc2)cc1,,"inconclusive [inhibitor, full curve]"
O=C(NCC1CCCCC1)c1cc([N+](=O)[O-])ccc1N1CCOCC1,,"inconclusive [inhibitor, full curve, poor fit]"
